Measurements taken from a compilation of properties of binary mixtures (doi:10.1016/j.fluid.2015.06.043).
Some of these densities may be calculated back from excess volumes.

Assay: xn = mol fraction of the nth substance listed
Conditions: 101 kPa

O + CC[n+]1ccccc1.O=S(=O)([O-])C(F)(F)F
x2 = 0
Conditions	mass density [kg/m3]
283.15 K	999.7
333.15 K	983.2
343.15 K	977.8

CC[n+]1ccccc1.O=S(=O)([N-]S(=O)(=O)C(F)(F)F)C(F)(F)F + O
mass density [kg/m3]
Conditions	283.15 K	293.15 K	298.15 K	303.15 K	313.15 K	333.15 K	343.15 K	353.15 K
x2 = 0.0043	1551.6	1541.4	1536.4	1531.4	1521.5	1501.9	1492.2	–
x2 = 0.087	1546.8	1536.6	–	1526.6	1516.6	1497	–	1477.5

CC[n+]1ccccc1.O=S(=O)([O-])C(F)(F)F + O
mass density [kg/m3]
Conditions	283.15 K	293.15 K	298.15 K	303.15 K	313.15 K	323.15 K	333.15 K	343.15 K	353.15 K
x1 = 0.067	1176.4	–	–	1163.7	1156.9	1149.7	1142.2	–	1126.3
x1 = 0.183	1288.1	1280.2	1276.2	1272.1	1264	1255.7	1247.3	1238.7	–
x1 = 0.498	–	1366.1	–	1357.8	1349.4	1341.1	1332.8	1324.4	1316.1
x1 = 0.689	–	1387.2	1383	1378.8	–	1362.3	1354	–	1337.7
x1 = 0.893	–	1401.9	1397.7	1393.5	1385.2	1377	1368.8	1360.7	–
x1 = 1	–	1409	1404.8	1400.6	1392.3	1384.1	1376	1367.8	1359.8
